In PubChem BioAssay AID2100 (National Center for Advancing Translational Sciences (NCATS), 2009):
Several values for one entry are separate records, joined by “and”; a condition that tells them apart may be missing. Equal values may be shown once. The campaign covered roughly 300,000 compounds. About 1,200 (0.4%) were called active. The inconclusive results got no clear call from the source; some entries with a clear call stand among them for comparison. Calls follow the shape of the dose curve; as a rule, active = well fitted inhibition curve with a large enough effect; inconclusive = small, poorly fitted or top-dose-only effect, or another doubt; inactive = no such curve, though single readings can be large or run the other way. Where the call is inconclusive, the potency comes from a doubtful curve fit.
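For activity change, negative = inhibition in this document: 0% = full enzyme reaction and -100% = no-enzyme basal signal.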
Potency is read from the fitted curve at half-maximal effect.

These molecules were tested against Lysosomal alpha-glucosidase (Homo sapiens) (UniProt P10253) (assay: qHTS Assay for Inhibitors and Activators of Human alpha-Glucosidase Cleavage of Glycogen). Settings: recombinant GAA, glycogen substrate, Amplex Red glucose oxidase fluorescence; activity change, negative = inhibition: at 76.4 µM (top of the series) unless noted.
Method in brief: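 Natural-substrate format: glycogen cleavage by 4 nM human enzyme, glucose read by Amplex Red coupling (Ex 573, Em 610 nm). Normalized to enzyme and no-enzyme controls.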
`COc1ccc(-c2nc3ccccn3c2NCc2ccc3c(c2)OCO3)cc1` was tested, and the Potency was active: 8.84 µM.
In the case of `CCS(=O)(=O)N1CCCc2cc(C(=O)Nc3cccc(C(C)=O)c3)ccc21`, the Potency is reported as active: 35.5 µM.
`COc1ccccc1CNC(=O)C1CCN(S(=O)(=O)c2ccc3nc4c(c(C(=O)O)c3c2)CCCC4)CC1` was tested, and the Potency was inconclusive: 20 µM [inhibitor, partial curve].
In the case of `CCOC(=O)N1CCN(C(=S)Nc2ccc3nc(N4CCN(CC)CC4)cc(C)c3c2)CC1`, the Potency is reported as inconclusive: 20 µM [inhibitor, partial curve].
With `O=C1CC(c2ccccc2)c2cc(O)ccc2O1` (stereo unspecified) the Potency was inconclusive: 35.5 µM [inhibitor, single point].
For `C=CCOC(=O)C1C(=O)CC(C)(O)C(C(=O)OCC=C)C1c1ccc(N(C)C)cc1` (stereo unspecified), the Potency was inconclusive: 10 µM [inhibitor, full curve, poor fit].
In the case of `Oc1c(Br)cc(/C=N/Nc2ccc(Cl)nn2)cc1Br`, the Potency is reported as inconclusive: 24.9 µM [inhibitor, single point].
With `CCOc1ccc(CN2CCN(Cc3[nH]c4ccc(OC)cc4c3C)CC2CCO)cc1` (stereo unspecified) the Potency was inconclusive: 11.1 µM [inhibitor, partial curve].
`CCOC(=O)N1CCc2c(sc3c2C(=O)NC(c2ccc(N(C)C)cc2)N3)C1` (stereo unspecified) was tested, and the Potency was inconclusive: 14.1 µM [inhibitor, partial curve].
`S=c1[nH]ncn1/N=C/c1ccc(Br)cc1` was tested, and the Potency was inconclusive: 39.5 µM [inhibitor, single point].
`Cc1ccc(C)n1-c1ccsc1C(=O)CC#N` was tested, and the Potency was inconclusive: 31.6 µM [inhibitor, partial curve].
With `C=CCN=c1scc(C)n1/N=C/c1ccc(O)c(O)c1` the Potency was inconclusive: 50.1 µM [inhibitor, single point].
In the case of `S=C(Nc1ccc2nsnc2c1)N1CCCC1`, the Potency is reported as inconclusive: 39.5 µM [inhibitor, single point].
With `CCN(CC)c1ccc(/C=N/N2CCN(Cc3ccc(C)cc3)CC2)c(O)c1` the Potency was inconclusive: 6.31 µM [inhibitor, partial curve].
With `Cc1ccc(C(=O)Nc2ccc3c(c2)OCO3)cc1S(=O)(=O)N1CCCC1` the Potency was inconclusive: 25.1 µM [inhibitor, partial curve].
For `CCc1ccc(C(=O)NNc2cc(Cl)cc(Cl)c2)cc1`, the Potency was inconclusive: 50.1 µM [inhibitor, single point].
`CCc1nnc(NC(=O)c2cc(=O)c3cc(C)ccc3o2)s1` was tested, and the “activity change, negative = inhibition” value was inactive: 14.2% [at 76.3 µM].
For `COC(=O)C1=NN(C(=O)c2ccc(C)cc2)C(O)(c2ccc(Cl)cc2)C1` (stereo unspecified), the Potency was inconclusive: 28 µM [inhibitor, partial curve].
For `C/C(=N\NC(=S)Nc1c(C)cccc1C)c1ccc(O)cc1`, the Potency was inconclusive: 35.5 µM [inhibitor, partial curve].
With `Cc1nnc(SCC(=O)c2c(N)n(Cc3ccccc3)c(=O)n(C)c2=O)n1C` the Potency was inconclusive: 31.6 µM [inhibitor, single point].
For `NC(=O)C1(N2CCCCC2)CCN(C(=O)c2ccc(C#Cc3ccccc3)o2)CC1`, the Potency was inconclusive: 3.16 µM [inhibitor, partial curve].
`Cc1ccc(C(=O)N/N=C\C2CC=CCC2)cc1[N+](=O)[O-]` (stereo unspecified) was tested, and the Potency was inconclusive: 12.6 µM [inhibitor, partial curve].
With `CCOc1ccc2ncc3c(-c4ccc(C)cc4)nn(-c4cccc(F)c4)c3c2c1` the Potency was inconclusive: 5.62 µM [inhibitor, full curve, poor fit].
For `CCN(CC)S(=O)(=O)c1cc([N+](=O)[O-])ccc1NNC(=O)Nc1ccc(F)cc1`, the Potency was inconclusive: 28.2 µM [inhibitor, single point].
In the case of `O=[N+]([O-])c1ccccc1-c1ccc(C(=S)N2CCCC2)o1`, the Potency is reported as inconclusive: 28.2 µM [inhibitor, partial curve].
`Cc1ccc(C)c(NC(=O)Cn2c([N+](=O)[O-])cnc2C)c1` was tested, and the Potency was inconclusive: 56.2 µM [inhibitor, partial curve, poor fit].
In the case of `COC(=O)NC(Nc1sc2c(c1C(N)=O)CCCC2)(C(=O)OC)C(F)(F)F` (stereo unspecified), the Potency is reported as inconclusive: 28.2 µM [inhibitor, single point].
In the case of `Cc1cc(F)ccc1S(=O)(=O)NCC(c1cccnc1)N1CCc2ccccc21` (stereo unspecified), the Potency is reported as inconclusive: 39.8 µM [inhibitor, single point].
For `Cc1ccc(S(=O)(=O)NNC(=O)c2cc3cc4ccccc4nc3s2)cc1`, the Potency was inconclusive: 12.6 µM [inhibitor, partial curve, poor fit].
`COc1ccc(S(=O)(=O)NNC(=O)c2cc3cc4ccccc4nc3s2)cc1` was tested, and the Potency was active: 12.5 µM.
In the case of `Cc1ccc(S(=O)(=O)Nc2cc(Cl)c(O)cc2C)cc1`, the Potency is reported as active: 22.4 µM.
With `Cc1cc(C)n(-c2nc3ccccc3nc2Nc2ccc(N(C)C)cc2)n1` the Potency was inconclusive: 10 µM [inhibitor, partial curve].
`CC1CCc2c(sc(Nc3nc4c(F)cccc4s3)c2C(N)=O)C1` (stereo unspecified) was tested, and the Potency was inconclusive: 35.5 µM [inhibitor, partial curve].
For `CC1(C)OC(=O)C(=NNc2ccccc2)C(=O)O1`, the “activity change, negative = inhibition” value was inactive: 0.0582%.
`COc1ccc2c(c1)c(=O)oc1c(C)c(OC(C)C(=O)N[C@@H](Cc3c[nH]c4ccc(O)cc34)C(=O)O)ccc12` (stereo partly specified) was tested, and the Potency was inconclusive: 3.98 µM [inhibitor, full curve].
In the case of `Cc1ccc(S(=O)(=O)Oc2cccc(/C=N/Nc3ccc(C(=O)O)cc3)c2)cc1`, the Potency is reported as inconclusive: 35.5 µM [inhibitor, single point].
In the case of `COc1c(O)cc2oc(-c3ccc(O)c(O)c3)cc(=O)c2c1O`, the Potency is reported as active: 10 µM.
With `CCOC(=O)/C(=N/Nc1ccccc1)N1CCCc2ccccc21` the Potency was inconclusive: 39.8 µM [inhibitor, partial curve].
In the case of `Cc1cc(Nc2ccccc2)n(CCOC(=O)COc2ccccc2)n1`, the Potency is reported as active: 31.6 µM.
`CCCc1cc(=O)[nH]c(SCC(=O)N2CCN(c3ccccc3)CC2)n1` was tested, and the Potency was inconclusive: 7.08 µM [inhibitor, full curve].
With `Cc1ccc(Cl)cc1NC(=S)NN` the Potency was inconclusive: 28 µM [inhibitor, single point].
In the case of `Cc1cc2c(cc1S(=O)(=O)CCC(=O)N1CCC(C)CC1)OCC(=O)N2`, the “activity change, negative = inhibition” value is reported as inactive: -18.9% [at 76.3 µM].
For `COC(=O)NNC(=S)Nc1ccc(Br)cc1`, the Potency was inconclusive: 15.8 µM [inhibitor, partial curve].
`CCCSc1nc(N)c2c3c(sc2n1)CN(C)CC3` was tested, and the Potency was inconclusive: 28 µM [activator, single point].
`CCN(CC)CCCNc1oc(/C=C/c2ccc(OC)c(OC)c2)nc1C#N` was tested, and the Potency was inconclusive: 31.6 µM [inhibitor, single point].
For `O=c1cc(CN2CCN(c3ccc(O)cc3)CC2)nc2scc(-c3ccccc3)n12`, the Potency was inconclusive: 17.6 µM [inhibitor, single point].
`CC1(c2ccc3ccccc3c2)NC(=O)N(CC(=O)N2CCN(c3ccccc3O)CC2)C1=O` (stereo unspecified) was tested, and the Potency was inconclusive: 7.94 µM [inhibitor, single point].
`Cc1ccc(S(=O)(=O)NNC(=O)C(=O)NNc2ccccn2)cc1` was tested, and the Potency was active: 3.52 µM.
With `Cc1nnc(N/N=C/c2cc([N+](=O)[O-])c(N3CCC(C)CC3)cc2N2CCC(C)CC2)n1N` the Potency was active: 31.4 µM.
`COCCNC(=O)CCC(=O)NNc1nc2ccccc2c2nc(C)nn12` was tested, and the Potency was inconclusive: 7.08 µM [inhibitor, full curve] and inconclusive: 22.4 µM [inhibitor, single point].
For `Cc1ccc(S(=O)(=O)NC(=O)Nc2c(C)n(C)n(-c3ccccc3)c2=O)cc1`, the Potency was active: 15.7 µM.
In the case of `Cc1nc(Nc2ccc(O)cc2)c2c3c(sc2n1)CCCC3`, the Potency is reported as active: 14 µM.
In the case of `c1ccc(Nc2cc(Nc3ccccc3)[nH]n2)cc1`, the Potency is reported as active: 28 µM.
With `Cc1ccc(N/N=C2\COC(C)(C)CC2=O)cc1` the Potency was inconclusive: 28.2 µM [inhibitor, single point].
With `COc1cccc(C(=O)NCC2OCCc3ccccc32)c1` (stereo unspecified) the “activity change, negative = inhibition” value was inactive: 15.4% [at 76.3 µM].
With `CCC(=O)NNc1cc(=O)c2c(=O)n(C)c(=O)n(C)c2[nH]1` the Potency was inconclusive: 15.7 µM [inhibitor, partial curve].
`COc1ccccc1/C=C/C=N/NC(=O)CCC1C(=O)NN=C1C` (stereo unspecified) was tested, and the Potency was inconclusive: 15.8 µM [inhibitor, partial curve].
For `CCOC(=O)/C(C#N)=C1/SC(CC)C(=O)N1c1ccc(Br)cc1` (stereo unspecified), the Potency was inconclusive: 17.6 µM [inhibitor, partial curve].
In the case of `CCOc1cc(C2C(C(=O)N3CCOCC3)=C(C)NC3=C2C(=O)CCC3)ccc1O` (stereo unspecified), the Potency is reported as inconclusive: 28.2 µM [inhibitor, partial curve].
With `O=C(N/N=C/C1CCCCC1)c1ccccn1` the Potency was inconclusive: 11.2 µM [inhibitor, partial curve].
For `Cc1nn(-c2ccccc2)c(Cl)c1C(=O)NCc1ccccc1F`, the Potency was inconclusive: 7.08 µM [inhibitor, single point].
For `COC(=O)CC1C(=O)NC(C)=C1C(=O)OC` (stereo unspecified), the Potency was inconclusive: 14 µM [inhibitor, partial curve].
`CCO/C=C1\C(=O)N(c2ccccc2)C(=O)c2ccccc21` was tested, and the “activity change, negative = inhibition” value was inactive: 2.68%.
In the case of `CCCN1CN(Cc2ccco2)c2nc3ccccc3n2C1`, the Potency is reported as inconclusive: 39.5 µM [inhibitor, partial curve, poor fit].
In the case of `COc1ccc(C(=O)c2c(N)c(-c3nc(-c4ccc5c(c4)OCO5)cs3)c3ccccn23)cc1`, the Potency is reported as inconclusive: 7.08 µM [inhibitor, single point].
`Cc1cc(C(F)(F)F)cc(NNC(=O)NC(=O)c2c(F)cccc2Cl)n1` was tested, and the Potency was inconclusive: 9.92 µM [inhibitor, partial curve].
